Laboratory results reported in PubChem BioAssay AID485281 (National Center for Advancing Translational Sciences (NCATS), 2010).
Where “and” joins values, the source holds several entries; their conditions need not be identical. Identical values can stand only once. In all, about 350,000 compounds went through this assay and about 260 (0.074%) were called active. The shares of active, inactive and inconclusive entries below differ from those in the screen. The call rests on the fitted dose curve; in most records, active means well fitted inhibition curve with a large enough effect; inconclusive means small, poorly fitted or top-dose-only effect; inactive means no such curve, though single readings can be large or run the other way. Potencies beside an inconclusive call are fits to weak or partial responses and may not hold up.

What follows are compounds tested against Ferritin light chain (Equus caballus) (UniProt P02791) (assay: qHTS Assay for Identification of Novel General Anesthetics). Details: apoferritin/1-aminoanthracene competitive binding, fluorescence; series mostly up to 77.5 µM.
UniProt P02791, sequence (P02791 whole entry, looked up): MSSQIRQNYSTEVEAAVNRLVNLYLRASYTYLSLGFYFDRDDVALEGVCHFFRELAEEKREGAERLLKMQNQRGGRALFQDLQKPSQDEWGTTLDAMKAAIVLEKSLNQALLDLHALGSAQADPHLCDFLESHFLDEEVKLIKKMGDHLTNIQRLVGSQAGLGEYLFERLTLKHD
How it was run: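 Read-out: endpoint 1-AMA fluorescence, excitation 380 nm and emission 535 nm, after compounds sit 10 min at room temperature with 10 uM horse-spleen apoferritin in 50% saturated 1-AMA/PBS. Values come from four-parameter Hill fits.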
Further: nearly all actives have a fitted effect of over 20% in size.
Potency means the concentration at half of the fitted maximal effect; tags describe the fitted curve by direction and shape.

Potency, inactive:
COCc1nc(-c2ccc(-c3ccccc3)nc2OC)no1, O=CC1=C(c2ccccc2)Oc2ccccc2O1, CC(Sc1nnc(NCc2ccccc2)s1)C(=O)Nc1ccc2c(c1)C(=O)c1ccccc1C2=O (configuration not stated), Cc1cc(C)cc(NC(=O)CCS(=O)(=O)c2ccc3c(c2)oc(=O)n3C)c1, CCOC(=O)c1c(C)[nH]c(C)c1S(=O)(=O)N1CCN(c2ccc(Cl)cc2)CC1, CC(=O)N1c2ccc(S(=O)(=O)NCC3CCC(C(=O)Nc4ccc(F)cc4)CC3)cc2CC1C (configuration not stated), CSc1ccc(/C=N/N(C)S(=O)(=O)c2ccc(C)cc2)cc1, CCC(C)NCCOc1cc(C)cc(C)c1C (configuration not stated), CC(C)c1ccc(NC(=O)C(NS(=O)(=O)c2ccc3c(c2)CCC(=O)N3)c2ccccc2)cc1 (configuration not stated), CCc1ccc(NC(=O)N(Cc2cn(CC)c3ccccc23)C2CCCCC2)cc1, Cc1ccc2[nH]c(C)cc(=O)c2c1, CC(=O)N1CCN(c2ccccc2NC(=O)c2ccc(-c3cccc([N+](=O)[O-])c3)o2)CC1, CC12CN3CC(C)(CN(C1)C3c1ccc([N+](=O)[O-])o1)C2=O (configuration not stated), CCc1ccc(CNC(=O)c2ccc(CS(=O)(=O)Cc3cccc(C)c3)o2)cc1, COc1ccc(/C=N/N=C2/SCC(=O)N2Cc2ccccc2)cc1, CCN(CC)c1ccc2nc3c4ccccc4c(=O)cc-3oc2c1

Potency, inconclusive:
O=C(NCc1ccc2c(c1)OCO2)c1cc(-c2ccccc2Cl)on1 50.1 µM [inhibitor, single point], Cc1nc2ccc(NC(=O)Cc3ccc4c(c3)OCCO4)cc2s1 35.5 µM [inhibitor, single point], COc1ccc(C2=C(C)C(=O)N(Cc3ccc(C(=O)Nc4ccc(C)c(C)c4)cc3)S2(=O)=O)cc1 28.2 µM [inhibitor, partial curve], COc1ccc(NC(=O)NC2CCCCCCC2)cc1 31.6 µM [inhibitor, partial curve], Cc1cccc(-n2ncc3c(N4CCN(CCO)CC4)ncnc32)c1 7.08 µM [inhibitor, full curve, poor fit], COc1cccc(C(=O)Nc2ccc(-c3nnc(-c4ccco4)o3)cc2)c1 22.4 µM [inhibitor, partial curve], CCc1cccc(NC(=O)NC(=O)Cn2nnc(C(=O)OC)c2C(=O)OC)c1 22.4 µM [inhibitor, partial curve], O=C(CSc1nnc(CSc2nc3ccccc3s2)o1)NC1CCCCC1 31.6 µM [inhibitor, partial curve], Cc1nnc(SCC(=O)Nc2cccc(C(F)(F)F)c2)n1Cc1ccco1 35.5 µM [inhibitor, partial curve], Cc1ccccc1CS(=O)(=O)c1snnc1C 31.6 µM [inhibitor, partial curve], C/C(CC(=O)NC12CC3CC(CC(C3)C1)C2)=N\NC(=O)c1ccc(C)cc1 14.1 µM [inhibitor, partial curve], Clc1cc(Cl)cc(C2=N[C@@H](Cc3ccccc3)CO2)c1 35.5 µM [inhibitor, single point], CCOc1ccc(OCC)c(NS(=O)(=O)c2ccc3[nH]c(=O)ccc3c2)c1 12.6 µM [inhibitor, partial curve], O=C(COc1ccc(F)c(Cl)c1)c1ccc[nH]1 15.8 µM [inhibitor, partial curve], C=CCCCCCCCCCCCc1ccco1 28.2 µM [inhibitor, partial curve], Cc1cc(C)c(C#N)c(SCC(=O)N(C)C2CCCCC2)n1 28.2 µM [inhibitor, partial curve], Cn1ccnc1SCC(=O)Nc1ccc(Oc2ccccc2)cc1 28.2 µM [inhibitor, partial curve], O=C1C2C3C=CC(C3)C2C(=O)N1c1ccc2ccccc2c1 (configuration not stated) 3.16 µM [inhibitor, full curve], CCc1ccc(NC(=O)COCc2cc(-c3ccc(F)cc3)on2)cc1 56.2 µM [inhibitor, single point], O=C(CSc1nc(-c2cccs2)cc(C(F)(F)F)n1)NCc1ccco1 39.8 µM [inhibitor, partial curve], Nc1c(-c2ccccc2)cnn1-c1cccc([N+](=O)[O-])c1 44.7 µM [inhibitor, single point], Nn1c(=O)c2ccccc2n2c(SCc3ccc(C(F)(F)F)cc3)nnc12 35.5 µM [inhibitor, partial curve], CCn1c(=O)cc(SCC(=O)NCc2ccc(C)cc2)c2ccccc21 35.5 µM [inhibitor, single point] and 25.1 µM [inhibitor, partial curve], O=C(CN1C(=O)NC2(CCOc3ccccc32)C1=O)c1ccc(Br)cc1 (configuration not stated) 15.8 µM [inhibitor, partial curve], O=C(CNC(=O)c1ccccc1Br)N/N=C/c1ccc(O)cc1 6.31 µM [inhibitor, partial curve], CCSc1nnc(NC(=O)CSc2c(Cl)cccc2Cl)s1 22.4 µM [inhibitor, partial curve], Cc1ccccc1OCC(=O)N/N=C/c1ccc2c(c1)OCCO2 28.2 µM [inhibitor, partial curve], COc1ccccc1/C=C/C=N/n1c(COc2ccccc2)n[nH]c1=S 15.8 µM [inhibitor, partial curve], O=C1N(CC(=O)N2CCc3ccccc32)CCN1Cc1ccc(Cl)cc1 10 µM [inhibitor, partial curve], Cc1ccccc1NC1c2ccccc2C(=O)N1Cc1ccco1 (configuration not stated) 10 µM [inhibitor, partial curve], CCC(C)SCc1nc2ccccc2[nH]1 (configuration not stated) 28.2 µM [inhibitor, partial curve], OC(CNCC1COc2ccccc2O1)COc1ccc(Cl)cc1 (configuration not stated) 22.4 µM [inhibitor, partial curve], COCCNc1ccc(-c2nc(-c3ccccn3)no2)cc1[N+](=O)[O-] 8.91 µM [inhibitor, partial curve], Nc1cc(C(=O)c2ccccc2)ccc1[N+](=O)[O-] 39.8 µM [inhibitor, single point], COc1cccc(CNc2ccccc2O)c1OCc1ccccc1F 15.8 µM [inhibitor, partial curve], O=C(O)C(Cc1ccccc1)N1C(=O)/C(=C/c2cccs2)SC1=S (configuration not stated) 39.8 µM [inhibitor, single point], CN1CCN(S(=O)(=O)c2cccc(C(=O)Nc3nc(-c4ccccc4)cs3)c2)CC1 39.8 µM [inhibitor, partial curve], O=C(Nc1ccccc1)OCc1cnc(Cl)s1 22.4 µM [inhibitor, partial curve], Cc1ccc(NC(=O)Cn2c(=O)ccc3cc(S(=O)(=O)N4CCCC4)ccc32)cc1N(C)C 5.01 µM [inhibitor, full curve], O=C(Nc1ccc(CN2CCOCC2)cc1)c1ccc(-c2cccc([N+](=O)[O-])c2)o1 28.2 µM [inhibitor, partial curve, poor fit], CC1CCCCN1S(=O)(=O)c1ccc(C(=O)N(CCCN(C)C)c2nc3ccc(Br)cc3s2)cc1 (configuration not stated) 22.4 µM [inhibitor, partial curve], COc1ccc(CNC(=O)c2cc(-c3ccncc3)nc3c(C)cc(C)cc23)cc1OC 28.2 µM [inhibitor, partial curve], CC12CC3CC(C)(C1)CC(C(=O)Nc1nn[nH]n1)(C3)C2 12.6 µM [inhibitor, partial curve], COc1ccc(-c2noc(CSc3nnc(-c4ccccc4)n3C)n2)cc1 39.8 µM [inhibitor, single point], CCn1c(CNC(=O)c2ccco2)nnc1SCC(=O)Nc1cc(C)c(C)cc1Br 35.5 µM [inhibitor, partial curve], N#Cc1c(-c2ccco2)cc(C2CC2)nc1SCC(=O)c1ccccc1 22.4 µM [inhibitor, partial curve], CN(C)S(=O)(=O)c1cc(NC(=O)COC(=O)CCc2ccccc2)ccc1Cl 44.7 µM [inhibitor, single point], CC(=O)O/N=C1\C(=O)N(Cc2ccc(C)cc2)c2ccccc21 31.6 µM [inhibitor, partial curve], Oc1ccc(C(=S)N2CCCCC2)cc1Cl 14.1 µM [inhibitor, partial curve], CCn1cc(C(=O)Nc2ccc(C(C)C)cc2)c2cc(OC)c(OC)cc2c1=O 4.47 µM [inhibitor, full curve], O=S(=O)(Nc1cccc(-c2cn3c(n2)SCC3)c1)c1ccc(F)cc1F 35.5 µM [inhibitor, partial curve]
